The text below walks through data of the supplement of paper PMC9446081.

The whole screen tested about 39,000 compounds, of which about 220 (0.56%) showed activity. Some of the results follow.
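Also: static incubation at 37 °C against the wild-type strain, values averaged over two biological replicates.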

The subject of the assay is Escherichia coli K-12 BW25113. The experiment in a line: relative growth (OD600 normalised to plate interquartile mean) (fraction); higher = less growth inhibition, active = 0.2 or less. As to conditions: 50 µM; LB; incubation time: overnight (16-24 h).
Turning to `C[C@H](CO)N1C[C@H](C)[C@H](CN(C)C(=O)Nc2ccc(-c3ccccc3)cc2)OCc2ccccc2-c2ccccc2C1=O`, the relative growth was inactive: 0.99.

In the case of `C[C@H]1CN([C@@H](C)CO)C(=O)c2cccc(N(C)C)c2O[C@@H]1CN(C)S(=O)(=O)c1ccc(Cl)cc1`, the relative growth is inactive: 0.997.

Consider `CCCNC(=O)N(C)C[C@H]1Oc2cc(-c3ccc(C)cc3)ccc2S(=O)(=O)N([C@@H](C)CO)C[C@H]1C`, for which the relative growth was inactive: 1.02.

For `COc1ccc(C#Cc2cnc3c(c2)C(=O)N([C@H](C)CO)C[C@H](C)[C@H](CN(C)S(=O)(=O)c2cccs2)O3)cc1OC`, the relative growth is inactive: 1.01.

Regarding `COC(=O)C1=CO[C@@H](O[C@@H]2O[C@H](CO)[C@@H](O)[C@H](O)[C@H]2O)[C@@H]2[C@@H](C)[C@@H](O)[C@@H](OC(=O)/C=C/c3ccc(O)c(O)c3)[C@H]12`, the relative growth is inactive: 0.99.

Turning to `Cc1ccc(S(=O)(=O)Nc2cccc3c2O[C@H](CN(C)Cc2ccc(Oc4ccccc4)cc2)[C@@H](C)CN([C@H](C)CO)C3=O)cc1`, the relative growth was inactive: 0.981.

As for `COc1ccc(C2=C(NC(=O)c3ccc(OC)cc3-c3cccc(OC)c3)C(=O)c3ccccc3C2=O)cc1`, the relative growth was inactive: 1.01.

For the compound `O=C1C(O)=C(C2CCC(c3ccc(Cl)cc3)CC2)C(=O)c2ccccc21` (stereo unspecified), the relative growth is inactive: 1.19.

For the compound `C[C@@H]1CCCCO[C@@H](CN(C)S(=O)(=O)c2ccccc2)[C@@H](C)CN([C@H](C)CO)C(=O)c2cc(NC(=O)CCC(F)(F)F)ccc2O1`, the relative growth was inactive: 1.01.

`CC[C@@]1(O)C(=O)OCc2c1cc1n(c2=O)Cc2c-1nc1cc(F)c(C)c3c1c2[C@@H](N)CC3`: the relative growth is inactive: 1.02.

For the compound `Cc1noc(C)c1NC(=O)Nc1cccc2c1O[C@@H](CN(C)Cc1ccc(C(=O)Nc3ccccc3N)cc1)[C@@H](C)CN([C@H](C)CO)C2=O`, the relative growth was inactive: 1.02.

Regarding `C[C@H](CO)N1C[C@H](C)[C@H](CN(C)C(=O)Cc2ccccc2)OCCCC[C@H](C)Oc2ccc(NS(=O)(=O)c3ccc(Cl)cc3)cc2C1=O`, the relative growth is inactive: 1.03.

Take `C[C@H]1CN([C@@H](C)CO)C(=O)Cc2cc(NS(=O)(=O)c3cn(C)cn3)ccc2O[C@@H]1CN(C)C`: the relative growth was inactive: 0.993.

With `C[C@@H]1CN([C@@H](C)CO)C(=O)c2cc(C#Cc3cccc(F)c3)cnc2O[C@H]1CN(C)C(=O)C1CCOCC1`, the relative growth was inactive: 1.02.

As for `CC(C)(O)[C@@H]1CC[C@]2(CO)[C@@H](O)CC[C@](C)(O)[C@H]2[C@@H]1O[C@@H]1O[C@H](CO)[C@@H](O)[C@H](O)[C@H]1O`, the relative growth was inactive: 0.985.

As for `C[C@H]1CN([C@@H](C)CO)C(=O)Cc2cc(NC(=O)C3CC3)ccc2O[C@H]1CN(C)S(=O)(=O)c1ccc(Cl)cc1`, the relative growth was inactive: 1.02.

As to `CC(C)NC(=O)Nc1ccc2c(c1)C(=O)N([C@@H](C)CO)C[C@H](C)[C@@H](CN(C)Cc1ccc(C(F)(F)F)cc1)OCCCC[C@@H](C)O2`, the relative growth is inactive: 0.985.

With `C=C(C)CCn1cccc1C(C)=O`, the relative growth is inactive: 0.995.

As to `C[C@H](CO)N1C[C@H](C)[C@H](CN(C)C(=O)Nc2ccc3c(c2)OCO3)OCCCC[C@H](C)Oc2ccc(NS(=O)(=O)c3cccs3)cc2C1=O`, the relative growth is inactive: 1.05.

As to `C[C@@H]1CN([C@@H](C)CO)S(=O)(=O)c2ccc(Br)cc2O[C@H]1CN(C)C(=O)C1CCCCC1`, the relative growth was inactive: 0.971.

Turning to `C[C@@H]1CN([C@@H](C)CO)C(=O)Cc2cc(NC(=O)C3CCCCC3)ccc2O[C@H]1CN(C)S(=O)(=O)c1cn(C)cn1`, the relative growth was inactive: 1.02.

With `C[C@@H]1CN([C@@H](C)CO)S(=O)(=O)c2ccc(C#CCN(C)C)cc2O[C@H]1CN(C)C(=O)CN(C)C`, the relative growth is inactive: 0.998.

As for `COCC#Cc1ccc2c(c1)O[C@H](CN(C)S(=O)(=O)c1cccc(F)c1)[C@@H](C)CN([C@@H](C)CO)S2(=O)=O`, the relative growth was inactive: 1.01.

As for `C[C@H]1CN([C@@H](C)CO)C(=O)Cc2cc(NC(=O)Nc3ccc(F)cc3)ccc2O[C@@H]1CN(C)Cc1ccc(-c2ccccc2)cc1`, the relative growth is inactive: 0.998.

`COc1ccc(S(=O)(=O)N(C)C[C@H]2Oc3c(NC(=O)c4cnccn4)cccc3C(=O)N([C@H](C)CO)C[C@@H]2C)cc1`: the relative growth was inactive: 1.01.

As to `C[C@@H]1CN([C@H](C)CO)C(=O)Cc2cc(NC(=O)c3ccncc3)ccc2O[C@@H]1CN(C)Cc1ccncc1`, the relative growth was inactive: 1.01.

With `C[C@H](CO)N1C[C@H](C)[C@@H](CN(C)C(=O)NC2CCCCC2)Oc2c(NC(=O)Nc3ccc(C(F)(F)F)cc3)cccc2C1=O`, the relative growth is inactive: 0.703.

With `C[C@H]1CN([C@@H](C)CO)C(=O)c2cccc(NS(=O)(=O)c3cn(C)cn3)c2O[C@@H]1CN(C)C(=O)Nc1ccc2c(c1)OCO2`, the relative growth was inactive: 1.02.

On to `C[C@H](CO)N1C[C@H](C)[C@@H](CN(C)S(=O)(=O)c2cn(C)cn2)Oc2ccc(NC(=O)CCC(F)(F)F)cc2CC1=O`, for which the relative growth was inactive: 0.983.

Turning to `C[C@H]1CN([C@@H](C)CO)C(=O)Cc2cc(NS(C)(=O)=O)ccc2O[C@@H]1CN(C)S(=O)(=O)c1cccs1`, the relative growth was inactive: 0.998.

As for `C[C@H](CO)N1C[C@H](C)[C@H](CN(C)C(=O)c2cc(-c3ccccc3)on2)OCc2cn(nn2)CCCC1=O`, the relative growth is inactive: 1.01.

With `O=C(NCc1ccccc1)[C@@H]1c2ccccc2C(=O)N(Cc2ccccc2C(F)(F)F)[C@H]1c1ccc(CO)cc1`, the relative growth is inactive: 1.

Regarding `C[C@H](CO)N1C[C@H](C)[C@H](CN(C)Cc2ccc(C(F)(F)F)cc2)Oc2c(NC(=O)Nc3ccc4c(c3)OCO4)cccc2C1=O`, the relative growth is inactive: 1.01.

Regarding `Cc1nc(CSCc2ccc(Cl)cc2Cl)cs1`, the relative growth is inactive: 1.02.

Regarding `CCN1CCCC[C@@H]1C(=O)O`, the relative growth is inactive: 0.994.

As for `C[C@@H]1CCCCO[C@H](CN(C)Cc2ccc(C(F)(F)F)cc2)[C@@H](C)CN([C@H](C)CO)C(=O)c2cc(NC(=O)c3ccccc3)ccc2O1`, the relative growth is inactive: 1.

`C[C@@H]1CN([C@@H](C)CO)S(=O)(=O)c2ccc(C#CC3CC3)cc2O[C@H]1CN(C)C(=O)Cc1ccncc1`: the relative growth is inactive: 1.04.

Turning to `C[C@H](CO)N1C[C@H](C)[C@@H](CN(C)S(=O)(=O)c2cccs2)Oc2c(NC(=O)Nc3cccc4ccccc34)cccc2C1=O`, the relative growth is inactive: 1.01.

For the compound `COC(=O)c1c2oc(c1C(=O)OC)C(=O)N[C@@H](Cc1ccccc1)Cn1cc(nn1)CNC(=O)[C@H](Cc1ccccc1)NC(=O)N[C@@H](COC(=O)NCCCCCC(=O)NO)CC2`, the relative growth was inactive: 1.02.

As to `C[C@H]1CCCCO[C@H](CN(C)Cc2ccccc2)[C@@H](C)CN([C@@H](C)CO)C(=O)c2cc(NC(=O)c3ccncc3)ccc2O1`, the relative growth was inactive: 0.995.

On to `Cc1ccc(S(=O)(=O)Nc2ccc3c(c2)C(=O)N([C@H](C)CO)C[C@H](C)[C@@H](CN(C)S(=O)(=O)c2ccc(C)cc2)OCCCC[C@H](C)O3)cc1`, for which the relative growth was inactive: 0.937.

On to `CCOc1ccc2nc(C34CC5CC(CC(C5)C3)C4)ccc2c1`, for which the relative growth is inactive: 1.02.

Turning to `O=C(C[C@H]1CC[C@H]2[C@@H](COC[C@H](O)CN2S(=O)(=O)c2ccc(F)cc2)O1)N[C@H]1CCN(Cc2ccccc2)C1`, the relative growth was inactive: 1.01.

With `C[C@H]1CN([C@@H](C)CO)C(=O)c2cc(NC(=O)CCCCCC(=O)Nc3ccccc3N)ccc2O[C@@H]1CN(C)S(C)(=O)=O`, the relative growth was inactive: 0.987.

For `Cc1cccc(S(=O)(=O)N2C[C@H](O)COC[C@H]3O[C@H](CC(=O)NCCCN4CCOCC4)CC[C@@H]32)c1`, the relative growth was inactive: 0.988.

In the case of `COC(=O)CCC(=O)OC`, the relative growth is inactive: 1.02.

With `CC(C)c1ccccc1OC[C@@H](O)CN`, the relative growth was inactive: 0.975.

As for `O=C(NS(=O)(=O)c1ccccc1)C1CC1`, the relative growth is inactive: 0.956.

Regarding `C[C@H]1CN([C@@H](C)CO)C(=O)Cc2cc(NC(=O)Nc3ccc4c(c3)OCO4)ccc2O[C@H]1CN(C)Cc1ccc(Oc2ccccc2)cc1`, the relative growth was inactive: 0.986.

As for `C[C@H](CO)N1C[C@H](C)[C@H](CN(C)C(=O)Nc2ccc3c(c2)OCO3)OCCCC[C@H](C)Oc2ccc(NC(=O)Nc3ccccc3)cc2C1=O`, the relative growth was inactive: 1.05.

Take `Cc1noc(C)c1NC(=O)Nc1ccc2c(c1)CC(=O)N([C@@H](C)CO)C[C@@H](C)[C@@H](CN(C)Cc1ccc(Oc3ccccc3)cc1)O2`: the relative growth was inactive: 0.995.

As for `Cc1cc(C(=O)Nc2ccc3c(c2)C(=O)N(C)[C@@H]2CC[C@H](CC(=O)NCC(F)(F)F)O[C@@H]2CO3)no1`, the relative growth is inactive: 0.982.

For the compound `COCC#Cc1ccc2c(c1)O[C@H](CN(C)S(=O)(=O)c1ccc(C)cc1)[C@H](C)CN([C@@H](C)CO)S2(=O)=O`, the relative growth is inactive: 1.03.

Regarding `O=C(CCCCCCC(=O)N/N=C/[C@H](O)[C@@H](O)[C@H](O)CO)NO`, the relative growth is inactive: 0.984.

Turning to `Cc1noc(C)c1S(=O)(=O)N(C)C[C@@H]1OCCCC[C@@H](C)Oc2ccc(NC(=O)Nc3cccc4ccccc34)cc2C(=O)N([C@@H](C)CO)C[C@H]1C`, the relative growth is inactive: 1.04.

Consider `NC(=O)C1CCCN1C(=O)C(Cc1c[nH]cn1)NC(=O)C1CCC(=O)N1` (stereo unspecified), for which the relative growth was inactive: 0.995.

Consider `C[C@@H]1CN([C@@H](C)CO)C(=O)c2cccc(NC(=O)C3CCOCC3)c2O[C@H]1CN(C)Cc1ccc(Oc2ccccc2)cc1`, for which the relative growth was inactive: 1.01.

On to `C[C@H](O)C#Cc1ccc2c(c1)O[C@@H](CN(C)C(=O)CN(C)C)[C@H](C)CN([C@H](C)CO)S2(=O)=O`, for which the relative growth was inactive: 1.02.

As for `CC(CN)(Cc1ccccc1Cl)C(=O)O` (stereo unspecified), the relative growth is inactive: 0.993.

For the compound `CN1CCC(=C2c3ccccc3CCc3sccc32)CC1.O=C(O)CC(O)C(=O)O`, the relative growth was inactive: 1.07.

Consider `CO[C@@H]1CN(C)C(=O)c2cc(NC(=O)Nc3ccccc3)ccc2OC[C@@H](C)N(C(=O)CN(C)C)C[C@H]1C`, for which the relative growth is inactive: 1.
